# Assay results: the supplement of paper PMC12217912
# This is one part of the list. Sequences were assembled here from the parent chain. Values near 0.05 are background.
# B1: TEV protease; numbered along this chain (parent)
# chain: MGESLFKGPRDYNPISSSICHLTNESDGHTTSLYGIGFGPFIITNKHLFRRNNGTLVVQSLHGVFKVKDTTTLQQHLVDGRDMIIIRMPKDFPPFPQKLKFREPQREERICLVTTNFQTKSMSSMVSDTSCTFPSGDGIFWKHWIQTKDGQCGSPLVSTRDGFIVGIHSASNFTNTNNYFTSVPKNFMELLTNQEAQQWVSGWRLNADSVLWGGHKVFMVKPEEPFQPVKEATQL
# Variants of: B1
# Experiment: raw area under fraction-flipped curve 0-4 h after induction (AUC4h, not background-subtracted), DNA-recorder readout of cleavage of the substrate (dimensionless); higher = more cleavage of the substrate by the protease variant
# Conditions: temperature: 34 °C; time window: 0-4 h after rhamnose induction
# 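Further: Bxb1 expression induced with 0.2% (w/v) L-rhamnose at OD600 near 0.5, cultures sampled hourly, flipped fraction per protease–substrate barcode pair counted by paired-end Illumina sequencing.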
Variant,area with substrate EALYFQS,area with substrate ECLYFQS,area with substrate EDLYFQS,area with substrate EELYFQS,area with substrate EILYFQS,area with substrate ERLYFQS,area with substrate ESLYFQS,area with substrate EVLYFQS,area with substrate EWLYFQS,area with substrate EGLYFQS,area with substrate EHLYFQS,area with substrate EKLYFQS,area with substrate ETLYFQS,area with substrate EFLYFQS,area with substrate ELLYFQS,area with substrate EMLYFQS,area with substrate EQLYFQS,area with substrate EYLYFQS,area with substrate EPLYFQS
G214M,0.0841,0.082,0.0572,0.0749,0.0638,0.0697,0.0782,0.039,0.0572,,,,,,,,,,
G214V,0.0954,0.092,,0.117,,,0.0763,,,0.0794,0.076,0.0842,0.0744,,,,,,
H215G,0.0721,0.0601,,0.066,0.0626,0.0665,0.0525,0.0636,0.0625,0.0193,0.0703,0.0956,0.054,0.0738,0.0556,0.068,0.052,0.0538,
V217H,0.0577,0.0531,0.0757,0.0654,,0.0545,0.0528,0.0467,0.055,0.0604,,0.0559,0.0571,,0.0643,0.0647,0.0575,,
V217N,0.0478,0.0469,0.0652,0.0515,0.0606,0.0481,0.0568,0.0638,,0.0631,,,0.026,0.0681,0.0612,0.0651,0.067,,
F218G,0.0722,0.0969,0.109,0.0717,0.0682,,0.0594,,,,0.0831,0.06,0.0559,,,,,,
F218H,0.0916,0.118,0.205,0.143,0.0931,0.0973,0.119,0.184,0.0795,0.112,0.146,,,,0.104,,,,
F218S,0.117,0.0962,,0.12,0.0743,0.0883,0.105,0.0814,0.0878,0.0898,0.0747,0.0946,0.148,,0.0817,0.0845,0.133,0.0968,0.111
M219D,0.0886,0.0835,0.118,0.0772,0.0762,0.0683,0.0891,0.0746,0.0781,0.0649,0.103,0.0539,0.084,0.0974,,,0.0973,0.0642,0.11
M219L,0.112,0.127,0.0953,,0.088,,0.116,0.0878,0.0842,0.0856,,0.123,0.0629,,,0.112,,0.0909,
M219Q,0.121,0.071,0.132,,0.124,0.0956,0.0847,0.0799,0.0859,0.0838,,0.0904,0.0983,0.0928,0.104,0.0986,0.116,0.0825,
M219R,0.0864,0.0635,0.0918,,0.063,0.0627,0.0701,0.0572,0.0614,,0.0731,0.057,,0.0771,0.0537,0.0674,0.0854,0.0534,
K221N,0.132,0.0901,0.113,0.121,0.0842,0.0962,0.0998,0.0993,0.106,,0.103,0.103,0.105,,0.0776,0.126,0.0936,,0.0642
K221T,0.0981,0.09,0.133,,,0.0888,0.0465,0.0728,,0.0792,,,,,0.0773,0.103,0.113,,0.0819
K221Y,0.0965,0.0974,0.136,0.143,0.0642,0.107,0.0901,0.0911,0.0796,0.111,,0.139,0.107,0.0988,0.0819,0.11,0.126,,
P222G,0.106,0.0922,0.131,,0.0484,0.0864,0.095,0.0874,,0.0705,0.119,0.12,,,0.0923,0.112,0.106,0.0921,0.123
P222V,0.097,0.0897,0.129,0.108,0.0857,0.0906,0.0949,0.0865,0.0821,,0.0703,0.0982,0.0991,,0.0858,0.0927,0.138,0.0869,0.0915
E223F,0.0951,0.0798,,0.1,0.072,0.083,0.0794,0.0907,0.053,0.0964,0.0949,0.0824,0.053,0.0846,0.0636,,,,
E224M,0.101,0.0717,,0.12,0.0768,,0.0817,0.0791,0.0855,,,0.109,0.117,,,0.0836,0.0978,0.0908,0.107
E224P,0.101,0.0616,,0.109,,0.0869,0.097,0.0871,0.131,,,0.0989,0.048,0.0755,,,,,0.0639
E224T,0.12,0.103,0.112,,0.0868,,,0.0605,0.101,,0.102,,,0.113,,0.0718,0.131,,
P225R,0.111,0.081,,0.1,0.0859,0.102,0.107,0.101,0.0954,0.0931,0.108,0.0994,,0.106,0.0886,0.0957,0.118,0.0816,
P225T,0.109,0.121,0.144,0.103,0.0895,0.097,0.0996,0.125,0.0803,0.0969,,,0.102,,0.102,,0.0923,,0.122
P225W,0.0907,0.102,,0.079,0.0901,0.0899,0.102,0.0875,0.0746,0.11,,0.106,0.132,,0.0853,0.0941,0.107,,
F226Y,0.126,0.137,0.146,0.129,0.117,0.121,0.108,,0.101,,,0.127,,0.108,0.0813,0.15,0.0529,0.0981,0.158
Q227E,0.107,0.127,0.137,0.142,0.0978,0.103,0.108,0.111,0.117,0.0914,0.101,0.124,,,,0.0877,0.174,,0.112
